According to the supplement of paper PMC10338343:
± gives the standard deviation. Only a part is listed here, and it is no random draw.

System: MIWI (PIWIL1) piRISC loaded with L1MC piRNA (30 nt)
Experiment: pre-steady-state target cleavage rate (min^-1); MIWI and MILI are mouse PIWI proteins and EfPiwi is from a freshwater sponge; tags in brackets are library labels; higher = faster piRNA-guided slicing of the target
Conditions: guide: L1MC piRNA 5'p-UAACUAAAUACUAUGCAAGCUGUAGGUCCU
In short: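 The pre-steady-state cleavage rate was obtained by Cleave-'n-Seq with a burst-and-steady-state fit. A transcribed, DNA-blocked target RNA library (0.1 nM) was mixed with 1 nM active affinity-purified piRISC carrying one synthetic guide, with or without 500 nM GTSF1 partner protein, in HEPES–potassium acetate buffer at 33 °C for 0–8 or 0–960 min. Uncleaved targets were sequenced and normalised to depth and to weakly complementary targets, with three trials pooled and k3 capped at 0.0001 min^-1.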

[1] = auxiliary factor: 500 nM mouse GTSF1
[2] = auxiliary factor: none (no GTSF1)

Sequence	pre-steady-state target cleavage rate [1]	pre-steady-state target cleavage rate [2]
UCCUCCUACAGCUUGCAUAGUUUUUAGUUA	0.376 ± 0.025	0.0278 ± 0.0055
UCCUGGUUCAGCUUGCAUAGUAUUUUGUUA	0.611 ± 0.047	0.082 ± 0.018
UGGACCUAGAGCUUGCAUAGUAUUUACAAA	0.187 ± 0.029	0.00469 ± 0.0029
UCCACCUACAGCUUGGAAAGUAUUUAGUUA	1.01 ± 0.03	0.00576 ± 0.0018
UGGACCUACAGGUUGCAUAGUAUUUAGAUA	0.303 ± 0.036	0.0236 ± 0.0039
UCCUGGAUCAGCUUGCAUAGUAAUUAGUAA	0.248 ± 0.034	0.0094 ± 0.0034
UCCACCUUCAGCUUGCAUAGUAUUUUGUUA	0.615 ± 0.059	0.021 ± 0.0032
AGGACCUACAGCUUGGAUAGUAUUUAGUAA	1.02 ± 0.063	0.0552 ± 0.012
UCAACCUACAGCUUGCAUAGUAUUUAGUUA	1.43 ± 0.04	0.0646 ± 0.011
UCCUGGAUGUGCUUGCAUAGUAUCUUAGUUA	0.161 ± 0.019	0.0126 ± 0.0032
UCCACCUACAGCUUGCAUAGAAUUAAGUUA	0.267 ± 0.029	0.00783 ± 0.0026
UCCACCUACAGCAUUGCAUAGUAUUUAGUUA	0.935 ± 0.11	0.027 ± 0.0041
AGGACCUACAGCUUGCAUAGUAUUUAGUGA	1.01 ± 0.085	0.0934 ± 0.018
UCGACCUACAGCAUGCAAAGUAUUUAGUUA	1.02 ± 0.039	0.0116 ± 0.0028
UCCUGGAUGUCGAACCAUAGUAUUAUCAAA [g7:g15:cont:t1A]	< 0.0001	< 0.0001
UGGAGCUAGAGCUUGCAUAGUAUUUAGUUA	0.707 ± 0.048	0.0402 ± 0.0068
UCCACCUGACAGCUUGCAUAGUAUUUAGUUA	0.836 ± 0.081	0.0455 ± 0.0084
UCCUCCAACAGCUUGCAUAGUAUUUACUUA	0.267 ± 0.026	0.0243 ± 0.0038
UGGACCUACAGCUUGGAUAGUAUUUAGUUA	1.65 ± 0.068	0.0735 ± 0.013
UCCUGCUACAGCUUGCAAAGUAUUUAGAUA	0.297 ± 0.036	0.00879 ± 0.0018

Sequence	pre-steady-state target cleavage rate [1]	pre-steady-state target cleavage rate [2]
UCCUCCUACAGCUUGCAUAGUAUUUAGUUUA	1.1 ± 0.033	0.0676 ± 0.013
UCCUCCUACAGCUUGCAUAGUAUAAAGUUA	0.325 ± 0.028	0.0107 ± 0.0028
ACGACCUACAGCUUGCAUAGUUUUUAGUUA	0.561 ± 0.027	0.0565 ± 0.013
UCCACCUACAGCUAGCAUAGUAUUUACUUA	0.414 ± 0.042	0.0177 ± 0.004
AGGACCUACAGCUUGCAUAGCAUUUAGUUA	0.471 ± 0.033	0.0409 ± 0.0075
UCCUGGAUGAGCUUGCAUAGAAUUUAGAAA	0.0287 ± 0.011	0.00419 ± 0.0032
UCCUGCUCCAGCUUGCAUAGUAUUUAGUUA	0.934 ± 0.053	0.052 ± 0.0079
AGGACCUUCAGCUUGCUUAGUAUUUAGUUA	1.44 ± 0.055	0.0546 ± 0.01
UCCUCCUACAGCUUGCAUAGUUAUUAGUAA	0.119 ± 0.02	0.0033 ± 0.0018
UCCUGGAUGUCCGUGCAUAGUAUUUAGUUA	0.00772 ± 0.0046	0.00337 ± 0.0029
UGGACCUACAGCUUGCUAUGUAUUUAGUAA	0.0304 ± 0.0054	0.00289 ± 0.0013
UCCUGGUACAGCUUGCAAAGUAUUUACAAA	0.0891 ± 0.021	0.00374 ± 0.0025
AGGACCUACAGCUUGCUUAGAAUUUAGUUA	0.377 ± 0.04	0.00929 ± 0.0032
UGGACCUAAGCUUGCAUAGUAUUUAGUUA	1.27 ± 0.083	0.0446 ± 0.012
UCCUGGAUGUGCUUGCAUAGUAUUUACUAA	0.038 ± 0.014	0.00585 ± 0.0025
UCCUGGAUCACCUUGCAUAGUAUUUACUUA	0.136 ± 0.026	0.0112 ± 0.0024
UCCUGGAUCAGGUUGCAUACUAUUUAGUUA	0.1 ± 0.01	0.00531 ± 0.0018
UGGACCUACAGCUAGCAAAGUAUUUAGUUA	1.16 ± 0.061	0.00736 ± 0.0025
UGGAGGAACAGCUUGCAUAGUAUUUUCAAA	0.158 ± 0.026	0.00441 ± 0.0026
AGGACCUACUCCUUGCAUAGUAUUUACAAA	0.211 ± 0.032	0.00527 ± 0.0015

Sequence	pre-steady-state target cleavage rate [1]	pre-steady-state target cleavage rate [2]
UCCUGGAUGUGCUUGCAUAGUAGUUAGUUA	0.0529 ± 0.0067	0.0132 ± 0.005
UGGACGUACAGCUUGCAUAGUUUUUAGUUA	0.35 ± 0.015	0.0389 ± 0.0097
UCCAGCCUACAGCUUGCAUAGUAUUUAGUUA	1.32 ± 0.062	0.0623 ± 0.0092
UCGACCUACAGCUUGCAUUGUAUUUAGUAA	0.589 ± 0.026	0.0191 ± 0.0048
UGGACCUACAGCUUGCAUAGUAUUUUCUUA	0.171 ± 0.027	0.0216 ± 0.0055
UCCUGCUACACCUUGCAUAGUAUUUAGUAA	0.418 ± 0.055	0.0158 ± 0.0032
UCCUCCUACAGGAUGCAUAGUAUUUAGUAA	0.886 ± 0.082	0.0053 ± 0.0013
UCGACCUACAGCUUGCAUAGUAUUAAGAUA	0.248 ± 0.029	0.00627 ± 0.0027
UCCUGGUUCAGCUUGCAUAGUAUAUAGUUA	0.46 ± 0.048	0.033 ± 0.0093
UCCACCUACAGCUCGCAUAGUAUUUAGUUA	1.11 ± 0.043	0.0579 ± 0.012
UCGACCUACAGCUUGCAUAGUAAUUACUUA	0.231 ± 0.031	0.0184 ± 0.0043
UCGACGAACAGCUUGCAUAGUAUUUUCAAA	0.324 ± 0.038	0.00414 ± 0.0023
AGGACCUACUGCUUGCAUAGUAUUUAGAAA	0.387 ± 0.045	0.0229 ± 0.0055
UCCUGGUUCAGCUUGCAUAGUAUUUACAAA	0.22 ± 0.048	0.00541 ± 0.004
UCGACCUACACCUAGCAUAGUAUUUAGUUA	0.995 ± 0.058	0.0188 ± 0.003
UCGACCUACAGCUUGCUUAGUAUUAAGUUA	0.474 ± 0.036	0.0101 ± 0.0029
UCCUGGAACAGCUUGCCUAGUAUUUAGUUA	1.13 ± 0.051	0.0521 ± 0.011
UCCACCUACAGCUAGCAUAGUAUAUAGUUA	0.419 ± 0.041	0.0063 ± 0.0024
AGGACCUACAGCUUUCAUAGUAUUUAGUUA	0.644 ± 0.025	0.0459 ± 0.0095
UCCUGGAUCAGCAAGCAUAGUAUUUAGUUA	0.342 ± 0.047	0.0035 ± 0.0023
